# Measurements as given in the RNAGym collection of RNA variant scans (doi:10.7554/elife.90254).
# Read counts are not given, so values of variants with three or more changes are uncertain.
# B1: LINE1-full (parent)
# chain: UACGUAGGUGGUUUUCCCCUGAUAGUGCUAAGGGGGCCUGGAAGUUUGGACUGGGCAGAGCUCAACACAGCGUGGCAAAGUGGCUGUGGCUAGACUGCCUCUCUGGAUUCCUCGUCACUCAGCAGGGCAUCUCUGAGAGAAAUGCC
# Variants of: B1
# Experiment: self-cleavage, relative activity (ratio to wild type); higher = more cleavage; in vitro, sequencing; the parent is a self-cleaving ribozyme
row,Variant,self-cleavage
1,U13C A22G U39C U73G A77G G93A,0.18
2,U13C A92U A138G,2.3
3,U13C G32A U85A,0.25
4,U13C A67G C113U C145G,0.8
5,U13C U14C A77U U130C U134A,0.89
6,U13C C56A A124U,0.09
7,U12G U115C C120U A121G,2.58
8,U13C G35C A59U U108C A140G,0.93
9,U13A A77G U100C,1.77
10,U13C U14C A24U U62C G106A,0.1
11,U12G U62C A124G,0.13
12,U13C G55C U81G,0.09
13,U13A A121G U143C,1.8
14,U13C C68A U91C A142G,0.1
15,U13C G54A A67G A94G A107G A138G,0
16,U13C U23C A79U,1.3
17,U13C A57U G72U A136G,0.11
18,U13C U23C A69G U109A,0.35
19,U13A U87A A92G U119G,0.32
20,U13C A24G C103U,1.41
21,U13C A22C A69U A136U,0.31

row,Variant,self-cleavage
1,U13C A42G A43G,1.43
2,U13C U14C G54A U96A U104C U115A,0.21
3,U13C C68U U143C,0.1
4,U13C A67G A79G A140U,0.49
5,U13C A42G U130C,1.31
6,U13C A64U C110U,0.42
7,U13C A24G U52A U62A U130C U143A,0.41
8,U13A U39A U73C A78G,1.55
9,U13C U14C U20C C76U G83C,1.97
10,U13C A50G A59G U112C U119C,0
11,U12G U85G A124G U134A,0
12,U13C C17U U29C U47A U130A,0.74
13,U13A U45C A67G A79C G88A,0.09
14,U13C A79U U104C U109C,1.41
15,U13A A22G U39C A43G G74A G75C,0.43
16,U13C A69U U100C U104C U115A,0
17,U13C G36C G41A A117G,0
18,U13C A24G G36C A67U,0.14
19,U13C A42U U87A,0.1
20,U13C A77G A136U,1.17
21,U13C C56G U87A A94G U100C,0.41

row,Variant,self-cleavage
1,U13C A43G U96C,0
2,U13A U100C U112A A117G U132C,2.63
3,U13C A69U U130C,0
4,U13A U20C G27U U47C A79G U108A,0
5,U13A C16U U45C U112A A138G,0.81
6,U13C U20A U39A A79G U81C,0
7,U13C A42U A57G U104C,0.2
8,U12G U52C A65U,0.5
9,U13C A31U A121U,0.73
10,U13C A31U A59G U62C U109C U130C,0
11,U13C U14C U47C U87A,0.53
12,U13C A59U A64G U96A A138U,0.11
13,U13C U20A U62C C116A,0
14,U13C U14C A59G A140G,0.14
15,U13A G35U U87C U96C,0.09
16,U13A U115C A124G A136U,0
17,U13C A30G A136G,1.26
18,U13C A42G U47C A121U A129G U134C,2.3
19,U13C A136G A140G,1.88
20,U13A U39C A50U A79G A117G,0
21,U13C A57U A67G U104C,0

row,Variant,self-cleavage
1,U13C A43U C133A,0.77
2,U13C C28U U47A A67G,0.18
3,U13A A43U U62A A78G A79U,0
4,U13C A43G A117U A121U A142G,0.57
5,U13C A22G A42G A79G G93U,0.34
6,U13C C19U U115C A140U,1.11
7,U13A A59U A77U,0.47
8,U13C A67G A107G U115G G126A A138U,0
9,U13C A64G U115C,1.08
10,U13C A59U A64C U81A A124C C145U,0.69
11,U13C A57G G75U U119C U130C G139A,0.25
12,U13C A79G U130A U132C,2.63
13,U13C A69G A77U C84U U134C,0.06
14,U13A U20C A50U A92G,0.05
15,U13C A24G A142G,0.56
16,U13C U14C U20C A65U A77U U87C A140U,0.66
17,U13C U23C A50G A64G,0
18,U12G U109C G125A,1.37
19,U13C A121G A136G,1.56
20,U13C U14C C123U,1.08
